Molecules are shown by their SMILES. Out of some 45,000 compounds screened, about 65 (0.1%) were called active. The call rests on the fitted dose curve; in most records, active means well fitted activation curve with a large enough effect; inconclusive means small, poorly fitted or top-dose-only effect; inactive means no such curve, though single readings can be large or run the other way. The list shows a part of the results.

This test concerns the target Galactocerebrosidase (Homo sapiens) (UniProt P54803). As to the kind of experiment: A Novel Cell-Based Assay to Identify Small Molecules for B -Galactocerebrosidase. Further: 0% is about no effect; nearly all actives have a fitted effect of over 65% in size. The settings on record: 145M-Twi-hGALC-G270D cells (Twitcher mouse brain line with human GALC G270D), HMU-beta-Gal fluorescence, 48 h; series mostly up to 57.5 µM; activation: at the top concentration. A digest of the protocol: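 Mutant human GALC (G270D), stably expressed in a Twitcher mouse brain cell line lacking endogenous GALC, is measured in live-treated cells via 6-hexadecanoylamino-4-methylumbelliferyl-β-galactoside hydrolysis (0.1 mM final, pH 5.2) with fluorescent detection.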
UniProt P54803, sequence (P54803 whole entry, looked up): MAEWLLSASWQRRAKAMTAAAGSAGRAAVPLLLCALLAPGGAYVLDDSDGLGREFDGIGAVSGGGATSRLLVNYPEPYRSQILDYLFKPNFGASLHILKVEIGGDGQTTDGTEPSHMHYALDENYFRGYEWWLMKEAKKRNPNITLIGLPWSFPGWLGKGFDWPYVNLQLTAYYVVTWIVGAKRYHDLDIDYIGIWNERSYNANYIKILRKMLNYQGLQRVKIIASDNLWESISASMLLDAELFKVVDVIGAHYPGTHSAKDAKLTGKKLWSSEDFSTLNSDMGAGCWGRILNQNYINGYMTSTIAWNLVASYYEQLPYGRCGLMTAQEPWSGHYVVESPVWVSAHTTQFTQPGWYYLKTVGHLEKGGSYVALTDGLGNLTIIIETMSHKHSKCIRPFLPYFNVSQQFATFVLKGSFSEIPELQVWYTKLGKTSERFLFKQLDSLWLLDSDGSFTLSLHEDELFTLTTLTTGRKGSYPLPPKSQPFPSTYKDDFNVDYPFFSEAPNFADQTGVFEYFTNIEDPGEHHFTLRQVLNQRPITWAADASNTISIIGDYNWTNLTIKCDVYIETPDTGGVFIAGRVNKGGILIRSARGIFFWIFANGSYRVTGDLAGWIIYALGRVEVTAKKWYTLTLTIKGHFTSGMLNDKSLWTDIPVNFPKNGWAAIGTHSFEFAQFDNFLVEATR
Turning to `COc1cc2nc(NCCc3ccccc3)n3nc(-c4cccnc4)nc3c2cc1OC`, the “activation” value is inactive: -15.1%. Consider `CCOC(=O)c1c(NC(=O)/C=C/c2ccc(OCC)cc2)sc(C(C)=O)c1C`, for which the “activation” value was inactive: -3.99%. As for `Cc1nn(-c2ccccc2)c2sc(C(=O)Nc3cccc(Cl)c3)cc12`, the “activation” value is inactive: 6.57%. For the molecule `COC(=O)c1ccc2c(=O)n(CCCCCC(=O)N3CCN(c4cc(C)ccc4C)CC3)c(=O)[nH]c2c1`, the “activation” value is inactive: -2.74%. In the case of `CCCSc1ncc(Cl)c(C(=O)N2CCN(c3cccc(Cl)c3)CC2)n1`, the “activation” value was inactive: 0.131%. As to `CCOc1ccc(NC(=O)CC2C(=O)N(c3ccc(OC)cc3)C(=O)N2C2CCCCC2)cc1` (stereo not given), the “activation” value was inactive: -17.1%.

For `COc1cc(NC(=O)CCc2c(C)nc3c(-c4ccc(F)cc4)c(C)nn3c2C)cc(OC)c1OC`, the “activation” value was inactive: -13.1%.

As to `COc1ccc(CNC(=O)C(Cc2ccccc2)NS(=O)(=O)c2ccc3c(c2)CCN3C(C)=O)cc1` (stereo not given), the “activation” value was inactive: 4.62%.

As for `O=C(C1CCC(Cn2c(=O)c3sccc3n(Cc3cccc(F)c3)c2=O)CC1)N1CCOCC1` (stereo not given), the “activation” value is inactive: -10.3%.

Consider `N#C/C(=C/c1ccccc1Cl)c1nc2ccccc2c(=O)[nH]1`, for which the “activation” value is inactive: -6.58%.

For `CCCCCCNC(=O)c1c[nH]c2ccc(S(=O)(=O)N(C)c3ccc(C(C)C)cc3)cc2c1=O`, the “activation” value is inactive: -5.45%. In the case of `Cc1ccc(Cl)cc1N(C)C(=O)c1cc2c(Cl)nc3ccccc3c2s1`, the “activation” value is inactive: -33.3%. For the molecule `COc1ccc(N2CCN(C3(c4ccccc4)C(=O)c4ccccc4C3=O)CC2)cc1`, the “activation” value was inactive: -11.5%. Consider `COc1ccc(N2C(=O)CSC23C(=O)N(CC(=O)Nc2ccccc2F)c2ccccc23)cc1` (stereo not given), for which the “activation” value was inactive: -19.2%. Take `Clc1cccc(-c2nc3ccccn3c2Nc2ccc3c(c2)OCCO3)c1`: the “activation” value is inactive: 10.9%. On to `COC(=O)c1ccc(Nc2nc(-c3ccccc3Cl)nc3ccccc23)cc1`, for which the “activation” value is inactive: -6.26%. With `Cc1cccc(C(=O)Nc2cc3nn(-c4ccc(C(C)C)cc4)nc3cc2C)c1`, the “activation” value is inactive: -3.5%. Then `Cc1cc2nn(-c3ccc(F)cc3)nc2cc1NC(=O)c1cccc([N+](=O)[O-])c1C`, with inactive: -7.78%; and `COc1cccc(OC(=O)CSc2nnc(-c3cccs3)o2)c1`, with inactive: 1.04%; and `CC(=O)Nc1ccc(Nc2nc3c(S(=O)(=O)c4cc(C)ccc4C)nnn3c3ccsc23)cc1`, with inactive: -1.25%. For `Cc1ccc(N(C)C(CNS(=O)(=O)c2ccccc2)c2ccccc2)cc1` (stereo not given), the “activation” value is inactive: -7.82%.

Consider `COc1ccccc1NC(=O)CSc1ccc(-c2ccccn2)nn1`, for which the “activation” value was inactive: -12.5%. The value for `COc1cccc(CNC(=O)Cn2nc(-c3ccc(C)cc3)ccc2=O)c1` was inactive: -16.5%; that for `Cc1cc(OC(C)C(=O)N2CCC(c3nc4ccccc4o3)CC2)ccc1Cl` (stereo not given) was inactive: 0.103%; that for `COc1ccc(-n2ccnc2SCC(=O)Nc2cccc(OC)c2)cc1` was inactive: 2.44%. Turning to `CCCCN(C)S(=O)(=O)c1ccc(NC2=NS(=O)(=O)c3ccccc32)cc1`, the “activation” value is inactive: -9.72%.

As for `Cc1ccc(CNC(=O)C2CCC(CNS(=O)(=O)c3ccc(C)cc3)CC2)cc1` (stereo not given), the “activation” value is inactive: -14.2%. Turning to `Cc1ccc(NC(=O)Cn2cc(C(=O)c3ccco3)c3ccccc32)cc1C`, the “activation” value is inactive: -14.7%. Then `CCn1ccc2cc(S(=O)(=O)N3CCCN(C(=O)Nc4cccc(SC)c4)CC3)ccc21`, with inactive: -27%. Then `CCCNC(=O)C1CCN(C(=O)N2CC(C)Oc3ccccc32)CC1` (stereo not given), with inactive: -14.5%; and `COc1ccc(-c2ccc(CNCCCSc3nnnn3C)o2)cc1Cl`, with inactive: -10.7%. As for `COc1ccc(-n2ncc(C(=O)N3CCN(C(=O)c4ccco4)CC3)c2C2CCN(C(=O)OC(C)(C)C)CC2)cc1`, the “activation” value was inactive: -2.76%. With `CC(C)Cc1ccc(S(=O)(=O)NCc2nc3cccnc3n2Cc2ccccc2)cc1`, the “activation” value was inactive: 7.48%. Consider `Cc1ccc(-n2nc3c(N4CCC(C(=O)NC5CCCCC5)CC4)nnc(C)c3c2C)cc1`, for which the “activation” value is inactive: -3.69%.

Turning to `Cc1cc2oc(C(=O)Nc3ccc(S(=O)(=O)N4CCC(C)CC4)cc3)cc(=O)c2cc1C`, the “activation” value was inactive: 7.78%.

As for `Cc1ccc(/C=C/C(=O)N2CCC(c3nc4ccccc4o3)CC2)cc1`, the “activation” value was inactive: 0.678%. Regarding `COc1ccc(NC(=O)c2c(NCc3ccc(OC)c(OC)c3OC)sc3c2CCC3)c(OC)c1`, the “activation” value was inactive: -17.5%. Turning to `CCCCCOc1ccccc1CN1C(=O)C(=O)c2cc(C)ccc21`, the “activation” value is inactive: -33.6%. On to `CC1=C(c2ccc(C)c(C)c2)S(=O)(=O)N=C1N1CCC(C(=O)NCc2ccccc2C)CC1`, for which the “activation” value was inactive: -10.4%. On to `Cc1cccc(-c2noc(-c3ccc(NCc4ccccc4)c([N+](=O)[O-])c3)n2)c1`, for which the “activation” value is inactive: 2.72%. With `COc1ccccc1N1CCN(CCCNC(=O)c2nnc(Cc3ccc(F)cc3Cl)o2)CC1`, the “activation” value is inactive: -8.55%. As to `Cc1ccc(NC(=O)CN2C(=O)COc3ccc(S(=O)(=O)N4CCOCC4)cc32)cc1N(C)C`, the “activation” value was inactive: -18.1%. For the molecule `Cc1ccc(N(C)S(=O)(=O)c2ccc(-c3coc(C)n3)cc2)cc1`, the “activation” value was inactive: -14.1%. Regarding `COc1cc(C2C(C(=O)Nc3ccc(Cl)cc3)=C(C)Nc3nc(SC)nn32)cc(OC)c1OC` (stereo not given), the “activation” value was inactive: -8.05%. With `Cc1nn(CC(=O)NCCc2ccccc2)c(=O)c2nn(-c3ccccc3)c(C)c12`, the “activation” value was inactive: -8.89%.

In the case of `CC1=C(C(N)=O)C(c2cccc(Br)c2)n2nc(SCc3ccccc3Cl)nc2N1` (stereo not given), the “activation” value was inactive: -4.05%. The value for `CCc1nc2ccc(C(=O)N3CCN(c4cc(C)ccc4C)CC3)cc2nc1CC` was inactive: -20.9%; that for `CCOc1ccc(CCNC(=O)c2cc3sccc3n2CC)cc1OCC` was inactive: -2.56%; that for `Fc1ccc(CSc2nncn3c2cc2occc23)c(Cl)c1` was inactive: -4.02%.

`Cc1cc(C)c2oc(-c3ccc(NC(=O)COc4ccccc4C)cc3)nc2c1`: the “activation” value is inactive: -12.1%. As for `CCOCCCn1c(SCC(=O)NCc2ccccc2)nc2c(sc3ccccc32)c1=O`, the “activation” value is inactive: -5.91%.

Consider `COc1ccc(NC(=O)c2nnn(CC(=O)Nc3cccc(C)c3C)c2N)c(OC)c1`, for which the “activation” value was inactive: -12.7%. As for `Cc1cccc(CCNC(=O)c2cc3c(=O)[nH]c4ccc(C)cc4c3s2)c1`, the “activation” value is inactive: -25.9%. In the case of `Clc1ccc2c(c1)CCc1cccnc1C2=C1CCNCC1`, the “activation” value was inactive: -14.1%. On to `COc1ccccc1CNc1nc2ccccc2c2nc(-c3cccc(C)c3)nn12`, for which the “activation” value was inactive: -8.98%. As for `COc1ccc(-c2nc3sc(CCNC(=O)C(=O)Nc4cc(F)ccc4F)c(C)n3n2)cc1`, the “activation” value is inactive: -15.8%.

As for `COc1cc([N+](=O)[O-])ccc1NC(=O)N1CCC2(CC1)Nc1ccccc1-n1cccc12`, the “activation” value was inactive: -10.4%. On to `COc1ccc2cc3cc(C(=O)N4CCN(c5cccc(C(F)(F)F)c5)CC4)sc3nc2c1`, for which the “activation” value was inactive: 6.38%. Consider `CCn1cc(C(=O)NCCN(CC(C)C)CC(C)C)c(=O)c2cc(S(=O)(=O)N(C)C3CCCCC3)ccc21`, for which the “activation” value is inactive: -18.2%. In the case of `CCOc1ccc(C(=O)Nc2cccc(NC(=O)c3ccc(Cl)cc3Cl)c2)cc1`, the “activation” value is inactive: -2.63%. `Cc1cccc(NC(=O)CN(C)S(=O)(=O)c2ccc3c(c2)CCC(=O)N3)c1C`: the “activation” value was inactive: -22.6%. Then `O=C1NCC2(CCN(CCc3ccccc3)CC2)O1`, with inactive: -5.54%. Consider `CCCCOc1ccccc1Cn1c(=O)sc2ccccc21`, for which the “activation” value is inactive: -16%. The value for `CCOc1ccc(CN2C(=O)C(=O)c3cccc(C)c32)cc1OC` was inactive: -20%. Take `Cc1cccc(Nc2cc(C)nc(-n3nc(C)cc3C)n2)c1`: the “activation” value was inactive: -8.54%.

Turning to `Cc1c(C(=O)Nc2ccc(F)cc2)oc2ccc(S(=O)(=O)N3CCCCCC3)cc12`, the “activation” value was inactive: -2.12%. With `CCc1cccc(N2C(=O)CS(=O)(=O)C23C(=O)N(Cc2ccccc2)c2ccc(C)cc23)c1` (stereo not given), the “activation” value is inactive: -25.9%. The value for `Cc1ccc(Nc2nc3ccccc3nc2-n2nc(C)cc2C)c(Cl)c1` was inactive: -10.2%; that for `Cc1cccc(C(=O)N2c3ncnn3C3(CCCCC3)[C@@H]3CCCC[C@@H]32)c1` was inactive: -10.5%; that for `CSc1ccc(CNC(=O)c2sc3ncnc(N(C)C4CCCCC4)c3c2C)cc1` was inactive: -3.19%. Consider `Cc1cc(C)c(NC(=O)C2CCN(C(=O)N3CCOc4ccccc43)CC2)c(C)c1`, for which the “activation” value is inactive: -18.5%. For the molecule `COc1cc2c(cc1NC(=O)COc1ccc(Br)cc1)oc1ccccc12`, the “activation” value is inactive: -23.6%.

For the molecule `COC(=O)c1ccc2c(=O)n(CCc3ccc(S(N)(=O)=O)cc3)c(SCC(=O)C(C)(C)C)nc2c1`, the “activation” value was inactive: -16.5%.

`COc1ccc(-c2cc(C(F)(F)F)n3ncc(-c4ccccc4)c3n2)cc1`: the “activation” value was inactive: -25.1%. Take `CCOC(=O)c1cccc(NS(=O)(=O)c2ccc(-c3coc(C)n3)cc2)c1`: the “activation” value was inactive: -10.4%. `CSc1ccc(/C=C/c2nc3ccccc3n2S(=O)(=O)c2ccc(Br)cc2)cc1`: the “activation” value was inactive: -7.27%. `Cc1ccc(N2CCN(Cc3nnc(-c4ccccc4F)o3)CC2)c(C)c1`: the “activation” value was inactive: 0.325%. Then `Cc1ccc(-c2c3c(=O)n(C)c(=O)n(C)c3c3cnc4ccccc4n23)cc1`, with inactive: -22.4%; and `Cc1ccc(S(=O)(=O)CC(=O)Nc2nc3c(C)cccc3s2)cc1`, with inactive: -18.7%.

Regarding `O=C(Nc1ccc(Cl)c(C(F)(F)F)c1)c1nc2ccccc2nc1N1CCCCC1`, the “activation” value is inactive: -13%. In the case of `COc1ccc(-n2nnc(-c3nsc(NC(=O)c4cccc(C)c4)n3)c2C)cc1OC`, the “activation” value is inactive: -7%. On to `COc1ccccc1Nc1nc(N)nc(N)c1S(=O)(=O)c1ccccc1`, for which the “activation” value is inactive: -12.5%. The value for `COc1ccc(-c2[nH]c3c(c2-c2c(-n4cccc4)n(C)c(=O)[nH]c2=O)c(=O)[nH]c(=O)n3C)cc1F` was inactive: -6.58%. With `COc1cccc(NC(=O)/C(C#N)=C/c2c(C)n(Cc3ccccc3)c3ccccc23)c1`, the “activation” value was inactive: -20.1%. Then `CCOC(=O)c1c(C)[nH]c(C)c1S(=O)(=O)N1CCCC(C(=O)Nc2cccc(CC)c2)C1` (stereo not given), with inactive: -14.4%; and `CC(=O)N1CCc2cc(Br)cc(S(=O)(=O)NCCc3cccc(C)c3)c21`, with inactive: -11.5%.

For the molecule `COC(=O)c1ccccc1NC(=O)c1nn(C)c2c1COc1ccccc1-2`, the “activation” value is inactive: 5.9%.

With `CCOCCCNC(=O)c1cn(CC(C)C)c(=O)c2c1c1ccccc1n2C`, the “activation” value was inactive: -9.85%. As for `COc1cccc(NC(=O)Cn2nnc(C(=O)NCc3ccc4c(c3)OCO4)c2N)c1`, the “activation” value was inactive: -9.01%.

`Cn1c(SCC(=O)Nc2nc3ccccc3s2)ncc(C(=O)Nc2ccc(Cl)cc2)c1=O`: the “activation” value is inactive: -6.86%. Then `CCN1CCN(c2ncc3c(n2)CCN(Cc2cccc(F)c2F)C3)CC1`, with inactive: -9.33%; and `CSc1ncc(Cl)c(C(=O)N(C)c2ccccc2)n1`, with inactive: -25.6%. With `Cc1cc(C)c(NC(=O)CSc2nc(=O)n(Cc3cccnc3)c3c2CCC3)c(C)c1`, the “activation” value is inactive: 1.77%.

For `CN(C)c1cc(NC(=O)CNC(C)(C)C)c(O)c2c1C[C@@H]1C[C@H]3[C@H](N(C)C)C(=O)C(C(N)=O)=C(O)[C@@]3(O)C(=O)C1=C2O`, the “activation” value is inactive: -16.5%.

Turning to `COc1ccccc1Nc1ncc2c(n1)CCN(Cc1cc(F)cc(F)c1)C2`, the “activation” value is inactive: -16.4%.

(Values after PubChem BioAssay AID1159614 (National Center for Advancing Translational Sciences (NCATS), 2016).)
